The test system of data set [1] is human serum albumin. Set-up: method as in ref 45 (a number printed in a supplementary file, which may have a reference list of its own: not looked up in the article's list). The note with it: pH=7.4, isocratic, 10% acetonitrile; available for 37 compounds, remaining calculated by equation; cited from earlier work.
Data set [2] relates to α1 acid glycoprotein. Set-up: method as in ref 23, 24, 27, 29, 45 (a number printed in a supplementary file, which may have a reference list of its own: not looked up in the article's list). The note with it: pH=7.4, 100% aqueous mobile phase; previously obtained in authors' laboratory; cited from earlier work.
The nature of data set [3]: Unbound fraction in brain (fu,brain), brain homogenate method. The note with it: Kb from literature fu,brain. An excerpt:
However, Kp,uu,brain can be derived from Kp,brain by combining the unbound fraction of the drug in the plasma (fu,p) and in the brain (fu,brain) or the unbound brain volume of distribution, Vu,brain [7]. […] The relevant equations are included in Section 3. Evidently, fu,p is obtained by standard methods for plasma protein binding.
Experimentally determined Kp,brain values for 42 compounds were obtained from the literature and were converted to logBB. They preferably referred to rat studies in order to achieve homogeneity in the data. Experimental fu,brain values were available from the literature for 39 compounds in the dataset. When more than one value was available, the average was calculated. Most values were determined on rats.
The decimal logarithm of Kb, logKb, was used for the development of the models.

The conditions of data set [4]: rat brain tissue; cited from earlier work.
For data set [5] the following is noted: brain slice method; cited from earlier work.

Each structure is given as a SMILES string.

Consider `CN(C)CCOC(c1ccccc1)c1ccccc1` [Diphenhydramine], for which the “logk10,HSA” value in data set [1] was 0.14. The logkwAGP in data set [2] was 1.87.
As to `CN1CC[C@]23c4c5ccc(O)c4O[C@H]2[C@@H](O)C=C[C@H]3[C@H]1C5` [Morphine], the logKb exper. in data set [3] was 0.499. The “Kp,uu,brain” value in data set [4] was 0.32.
In data set [3], `CC(C)NCC(O)COc1ccc(CC(N)=O)cc1` (centres unmarked) [Atenolol] had a logKb exper. of 0.950. Moreover, the “logk10,HSA” value in data set [1] is on record as -1.04. In addition, the “Kp,uu,brain” value in data set [4] was 0.03. Also, the logkwAGP in data set [2] is 0.10.
Turning to `CCN(CC)CC(=O)Nc1c(C)cccc1C` [Lidocaine], in data set [1], the “logk10,HSA” value was 0.07. In data set [2], the logkwAGP is 1.25.
Turning to `CN1C(=O)CN=C(c2ccccc2)c2cc(Cl)ccc21` [Diazepam], the “Vu,brain” value in data set [5] is reported as 20.00 mL/g brain. Moreover, in data set [2], the logkwAGP is 1.80.
Consider `COc1ccc2cc([C@H](C)C(=O)O)ccc2c1` [Naproxen], for which the “logk10,HSA” value in data set [1] is given as 1.55. Moreover, the logkwAGP in data set [2] was 0.20.

The values are drawn from paper PMC9227077, “Prediction Models for Brain Distribution of Drugs Based on Biomimetic Chromatographic Data” (Molecules, 2022).
